From patent publication US20240335511A1 (BIONTECH, published 2024)

T1: IL-7 receptor (IL-7Ra and common gamma chain) on mouse T cells (mouse, UniProt P16872 21-459; P34902 23-369)
T1 sequence (looked up) 1: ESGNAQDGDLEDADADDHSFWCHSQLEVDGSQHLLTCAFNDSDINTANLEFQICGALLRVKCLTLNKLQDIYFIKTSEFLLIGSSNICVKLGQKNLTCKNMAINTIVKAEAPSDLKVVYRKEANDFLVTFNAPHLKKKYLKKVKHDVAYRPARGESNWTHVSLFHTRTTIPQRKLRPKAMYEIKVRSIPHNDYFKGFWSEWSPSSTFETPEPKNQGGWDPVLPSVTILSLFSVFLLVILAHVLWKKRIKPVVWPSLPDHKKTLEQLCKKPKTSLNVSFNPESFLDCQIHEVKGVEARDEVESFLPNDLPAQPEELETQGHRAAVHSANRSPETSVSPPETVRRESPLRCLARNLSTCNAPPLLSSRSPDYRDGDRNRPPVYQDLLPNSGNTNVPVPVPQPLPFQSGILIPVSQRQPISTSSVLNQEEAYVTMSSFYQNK
T1 sequence (looked up) 2: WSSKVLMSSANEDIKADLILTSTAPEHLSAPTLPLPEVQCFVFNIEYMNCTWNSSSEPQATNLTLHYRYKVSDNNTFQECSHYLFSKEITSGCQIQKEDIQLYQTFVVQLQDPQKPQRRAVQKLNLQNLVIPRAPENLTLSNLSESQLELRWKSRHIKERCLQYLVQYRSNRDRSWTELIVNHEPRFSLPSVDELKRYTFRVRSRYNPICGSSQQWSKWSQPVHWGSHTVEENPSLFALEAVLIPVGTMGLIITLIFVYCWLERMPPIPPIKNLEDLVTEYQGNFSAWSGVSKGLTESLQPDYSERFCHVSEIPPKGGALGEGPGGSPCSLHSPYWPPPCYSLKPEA

T2: IL-7 receptor (IL-7Ra and common gamma chain) on human PBMC T cells (human, UniProt P16871 21-459; P31785 23-369)
T2 sequence (looked up) 1: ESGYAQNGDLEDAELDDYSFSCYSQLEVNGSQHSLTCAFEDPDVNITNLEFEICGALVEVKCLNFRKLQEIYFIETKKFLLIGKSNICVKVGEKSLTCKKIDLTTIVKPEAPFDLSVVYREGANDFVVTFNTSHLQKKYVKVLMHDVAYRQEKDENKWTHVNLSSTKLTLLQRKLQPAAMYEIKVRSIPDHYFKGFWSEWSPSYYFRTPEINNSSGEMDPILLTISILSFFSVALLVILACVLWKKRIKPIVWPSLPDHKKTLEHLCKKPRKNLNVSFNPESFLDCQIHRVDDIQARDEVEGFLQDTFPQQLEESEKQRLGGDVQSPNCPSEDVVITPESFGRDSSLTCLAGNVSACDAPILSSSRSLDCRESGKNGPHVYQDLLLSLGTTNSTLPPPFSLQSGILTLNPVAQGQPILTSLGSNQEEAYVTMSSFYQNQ
T2 sequence (looked up) 2: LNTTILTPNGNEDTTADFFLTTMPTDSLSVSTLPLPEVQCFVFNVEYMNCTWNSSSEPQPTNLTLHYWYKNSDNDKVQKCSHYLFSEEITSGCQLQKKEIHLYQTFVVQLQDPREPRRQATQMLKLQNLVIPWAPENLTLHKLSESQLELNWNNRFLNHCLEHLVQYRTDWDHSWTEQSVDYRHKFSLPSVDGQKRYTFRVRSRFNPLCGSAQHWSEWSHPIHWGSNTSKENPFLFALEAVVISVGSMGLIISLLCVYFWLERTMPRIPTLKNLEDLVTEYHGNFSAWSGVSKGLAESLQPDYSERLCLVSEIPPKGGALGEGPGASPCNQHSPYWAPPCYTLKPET

T3: IL-2 receptor (IL-2Ra, IL-2RB and common gamma chain) on human CD4+CD25+ Tregs (human, UniProt P01589 22-272; P14784 27-551; P31785 23-369)
T3 sequence (looked up) 1: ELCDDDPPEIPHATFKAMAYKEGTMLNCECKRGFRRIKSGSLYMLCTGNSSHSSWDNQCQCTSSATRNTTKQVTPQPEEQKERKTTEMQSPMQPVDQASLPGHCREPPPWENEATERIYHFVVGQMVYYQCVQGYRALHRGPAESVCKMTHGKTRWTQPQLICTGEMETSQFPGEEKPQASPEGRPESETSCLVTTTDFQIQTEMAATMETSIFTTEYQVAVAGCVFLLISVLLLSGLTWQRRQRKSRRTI
T3 sequence (looked up) 2: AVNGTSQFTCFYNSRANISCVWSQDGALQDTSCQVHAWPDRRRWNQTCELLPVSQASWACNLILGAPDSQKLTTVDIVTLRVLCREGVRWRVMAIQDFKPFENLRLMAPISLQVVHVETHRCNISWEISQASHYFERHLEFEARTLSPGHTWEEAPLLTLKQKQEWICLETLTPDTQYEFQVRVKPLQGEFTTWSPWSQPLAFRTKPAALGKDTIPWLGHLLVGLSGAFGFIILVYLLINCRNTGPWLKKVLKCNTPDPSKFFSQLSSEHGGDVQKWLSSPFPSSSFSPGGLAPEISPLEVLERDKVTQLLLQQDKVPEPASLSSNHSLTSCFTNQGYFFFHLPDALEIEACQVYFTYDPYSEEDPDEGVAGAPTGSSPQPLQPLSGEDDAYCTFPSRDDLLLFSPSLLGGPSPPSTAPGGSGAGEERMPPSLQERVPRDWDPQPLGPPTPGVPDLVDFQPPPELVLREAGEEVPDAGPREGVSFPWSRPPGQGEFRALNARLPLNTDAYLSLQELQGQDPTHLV
T3 sequence (looked up) 3: T2 sequence (looked up) 2

T4: IL-2 receptor (IL-2Ra, IL-2RB and common gamma chain) on mouse CD4+CD25+ Tregs (mouse, UniProt P01590 22-268; P16297 27-539; P34902 23-369)
T4 sequence (looked up) 1: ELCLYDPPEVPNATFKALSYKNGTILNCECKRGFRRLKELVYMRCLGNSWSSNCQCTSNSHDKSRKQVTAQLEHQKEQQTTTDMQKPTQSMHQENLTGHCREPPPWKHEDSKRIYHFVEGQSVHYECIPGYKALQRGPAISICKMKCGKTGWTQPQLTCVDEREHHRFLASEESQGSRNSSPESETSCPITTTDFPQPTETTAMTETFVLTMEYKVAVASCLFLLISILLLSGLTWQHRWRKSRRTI
T4 sequence (looked up) 2: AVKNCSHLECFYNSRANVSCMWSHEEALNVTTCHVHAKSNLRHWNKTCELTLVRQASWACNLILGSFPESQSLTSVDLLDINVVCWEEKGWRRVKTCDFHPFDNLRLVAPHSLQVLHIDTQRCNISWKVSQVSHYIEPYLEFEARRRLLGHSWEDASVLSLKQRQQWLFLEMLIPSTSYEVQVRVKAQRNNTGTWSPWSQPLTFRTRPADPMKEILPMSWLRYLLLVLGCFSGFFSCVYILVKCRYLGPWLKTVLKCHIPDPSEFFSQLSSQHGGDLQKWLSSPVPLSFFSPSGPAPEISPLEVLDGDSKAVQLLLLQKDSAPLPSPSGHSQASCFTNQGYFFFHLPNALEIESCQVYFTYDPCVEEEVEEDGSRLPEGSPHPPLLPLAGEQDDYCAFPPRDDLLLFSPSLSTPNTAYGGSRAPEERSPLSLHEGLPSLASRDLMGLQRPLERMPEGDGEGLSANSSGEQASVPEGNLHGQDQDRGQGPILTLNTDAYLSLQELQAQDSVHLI
T4 sequence (looked up) 3: T1 sequence (looked up) 2

B1: hIL7-hAlb (human IL-7 fused to the N-terminus of human serum albumin; translated protein of BNT152 / RBP009.1) (ligand)
chain: DCDIEGKDGKQYESVLMVSIDQLLDSMKEIGSNCLNNEFNFFKRHICDANKEGMFLFRAARKLRQFLKMNSTGDFDLHLLKVSEGTTILLNCTGQVKGRKPAALGEAQPTKSLEENKSLKEQKKLNDLCFLKRLLQEIKTCWNKILMGTKEHGGSGGGGSGG[about 600 residues left out]
B2: hAlb-hIL2 (human IL-2 fused to the C-terminus of human serum albumin; translated protein of BNT153 / RBP006.1) (ligand)
chain: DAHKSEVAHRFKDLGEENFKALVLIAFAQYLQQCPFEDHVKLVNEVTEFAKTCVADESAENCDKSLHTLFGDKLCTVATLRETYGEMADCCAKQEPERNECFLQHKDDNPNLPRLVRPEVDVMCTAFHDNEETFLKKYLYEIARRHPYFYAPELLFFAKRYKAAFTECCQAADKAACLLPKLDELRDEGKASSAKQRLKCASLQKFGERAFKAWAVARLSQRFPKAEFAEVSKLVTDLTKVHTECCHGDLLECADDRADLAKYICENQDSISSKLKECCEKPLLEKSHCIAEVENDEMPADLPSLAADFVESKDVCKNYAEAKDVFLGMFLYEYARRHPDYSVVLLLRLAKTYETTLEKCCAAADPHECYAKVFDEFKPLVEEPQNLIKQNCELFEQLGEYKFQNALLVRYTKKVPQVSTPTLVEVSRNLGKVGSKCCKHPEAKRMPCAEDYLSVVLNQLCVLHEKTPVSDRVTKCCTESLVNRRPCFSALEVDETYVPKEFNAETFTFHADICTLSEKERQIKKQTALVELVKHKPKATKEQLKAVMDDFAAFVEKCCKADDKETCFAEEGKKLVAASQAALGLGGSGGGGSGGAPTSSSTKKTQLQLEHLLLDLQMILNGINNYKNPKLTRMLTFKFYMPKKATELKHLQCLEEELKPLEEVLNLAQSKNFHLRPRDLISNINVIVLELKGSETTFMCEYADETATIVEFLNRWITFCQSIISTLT

Experiments:
Test in all cases: cell-based or functional assay
[1] = target: T1, IL-7 receptor (IL-7Ra and common gamma …)
[2] = target: T5, IL-7 receptor (IL-7Ra and common gamma chain) on cynomolgus monkey PBMC T cells (cynomolgus monkey, UniProt Q38IC7 21-459)
[3] = target: T2, IL-7 receptor (IL-7Ra and common gamma …)
[4] = target: T5, IL-7 receptor (IL-7Ra and common gamma …); remark: listed apart in the source
[5] = target: IL-2 receptor (IL-2Ra, IL-2RB and common gamma chain) on cynomolgus monkey CD4+CD25+ Tregs (cynomolgus monkey, UniProt H6WS54 22-272; Q38J85 27-551)
[6] = target: T3, IL-2 receptor (IL-2Ra, IL-2RB and …)
[7] = target: T4, IL-2 receptor (IL-2Ra, IL-2RB and …)

Binder	EC50 of STAT5 phosphorylation, mouse CD4+CD25- T cells [1]	EC50 of STAT5 phosphorylation, mouse CD8+ T cells [1]	EC50 of STAT5 phosphorylation, cynomolgus monkey CD4+CD25- T cells [2]	EC50 of STAT5 phosphorylation, cynomolgus monkey CD8+ T cells [2]	EC50 of STAT5 phosphorylation, human CD8+ T cells [3]	fold-increased potency versus human (STAT5 phosphorylation), cynomolgus monkey CD4+CD25- T cells [4]	fold-increased potency versus human (STAT5 phosphorylation), cynomolgus monkey CD8+ T cells [4]	EC50 of STAT5 phosphorylation, cynomolgus monkey CD4+CD25+ Tregs [5]	EC50 of STAT5 phosphorylation, human CD4+CD25+ Tregs [6]	EC50 of STAT5 phosphorylation, mouse CD4+CD25+ Tregs [7]
B1	0.24 % supernatant	0.28 % supernatant	0.06 % supernatant	0.12 % supernatant	0.29 % supernatant	~3.5 fold	~2.4 fold			
B2								0.01 % supernatant	0.01 % supernatant	0.01 % supernatant
